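A five-concentration, 48-hour dose response in 96-well plates underlies each endpoint, interpolated linearly between surrounding concentrations. Abbreviation: GI50, concentration required for 50% inhibition of growth.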 Certain results were filed several times, with different values. The list is limited to them. The source may hold further records. For some of these results: Results that share an entry are repeated measurements (runs, samples, wells, individuals or studies). A tag in brackets gives the origin of a value. A, B and so on number the origins entry by entry.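 The concentration for full growth arrest is given as TGI.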 For some of these results: Records of one sample usually come from different ranges of test concentrations, not given here; a value can be the end of its range.

The source of these data is PubChem BioAssay (NCI).

Some test systems named below: SF-539 CNS; SK-MEL-2 melanoma; SK-MEL-28 melanoma; DMS 273 small cell lung; SNB-75 CNS; XF 498 CNS; M14 melanoma; SK-OV-3 ovarian; SF-268 CNS; SK-MEL-5 melanoma; NCI-H460 lung; KM12 colon; UACC-62 melanoma; RPMI-8226 leukemia; HCT-116 colon; CCRF-CEM leukemia; RXF 393 renal; HL-60(TB) leukemia; SN12C renal; HCT-15 colon; EKVX NSCLC; CAKI-1 renal; 786-0 renal; OVCAR-5 ovarian; BT-549 breast.

Experiment in all cases: NCI tumour cell line growth inhibition, 48 h

As to `COC(=O)NC1C(C)OC(OC2C/C=C(/C)C3C=CC4C(OC5CC(OC6CCC(OC7CC(O)C(OC8CCC(O)C(C)O8)C(C)O7)C(C)O6)C(OC(C)=O)C(C)O5)C(C)CC(C)C4C3(C)/C(O)=C3/C(=O)OC4(CC(C=O)=CC(O)C4/C=C\2C)C3=O)CC1(C)[N+](=O)[O-]` (stereo not drawn), the TGI in the test on SF-539 CNS was 1.23 µM and 78.1 nM; with SK-MEL-2 melanoma, 2.1 µM and 200 nM; in the test with SK-MEL-28 melanoma it was 1.89 µM and 135 nM.
With `COc1cc2c(c(OC)c1OC)-c1ccc(SC)c(=O)cc1[C@@H](NCc1ccc(F)cc1)CC2`, the TGI is < 7.5 nM and 7.33 µM in the test on DMS 273 small cell lung; 75 µM and 30.2 nM in the test on SNB-75 CNS; < 7.5 nM and 6.06 µM with XF 498 CNS; < 7.5 nM and 10.2 µM in the test with M14 melanoma; 10.9 µM and 364 nM in the test on SK-OV-3 ovarian; 43.9 µM and 1.75 µM in the test on SF-268 CNS. The TGI was < 7.5 nM and 10.9 µM in the test with SK-MEL-5 melanoma; 75 µM and 3.76 µM in the test with NCI-H460 lung; 9.16 nM and 416 nM in the test with KM12 colon; < 7.5 nM and 11.2 µM in the test on UACC-62 melanoma; < 7.5 nM and 25.9 µM in the test on SK-MEL-2 melanoma.
`COc1ccccc1/C=C(/C)[N+](=O)[O-]`: the TGI in the test on RPMI-8226 leukemia is 960 nM [sample A, 1 test] and > 100 µM [sample B, 1 test]; in the test on HCT-116 colon, > 100 µM [sample A, 1 test] and 4.95 µM [sample B, 1 test]; in the test on NCI-H460 lung, > 100 µM [sample A, 1 test] and 4.84 µM [sample B, 1 test]. The GI50 with CCRF-CEM leukemia is 404 nM [sample A, 1 test] and 13 nM [sample B, 1 test].
On to `CCCCCC(=O)N[C@@H](c1ccco1)[C@@H](O)C(=O)O[C@H]1C[C@@]2(O)[C@@H](OC(=O)c3ccccc3)[C@@H]3[C@]4(OC(C)=O)CO[C@@H]4C[C@H](O)[C@@]3(C)C(=O)[C@H](OC(C)=O)C(=C1C)C2(C)C`, for which the TGI in the test with RXF 393 renal is 20.9 nM and > 25 µM.
On to `C=C1C[C@H]2C=Nc3cc(OCCCOc4cc5c(cc4OC)C(=O)N4CC(=C)C[C@H]4C=N5)c(OC)cc3C(=O)N2C1`, for which the TGI in the test on HL-60(TB) leukemia is 2.43 nM and > 4.64 µM; in the test on SN12C renal, 17.5 nM and 2.63 µM; in the test with HCT-15 colon it was 976 nM and > 51.7 µM; in the test with EKVX NSCLC it was 457 nM [1 test] and 5.06 µM [mean of 3 tests]; in the test with CAKI-1 renal, 714 nM and 37.2 nM; in the test with SF-268 CNS, 56.7 nM and 2.22 µM. Also, the TGI in the test on 786-0 renal was 16.2 nM and > 100 µM; in the test on OVCAR-5 ovarian, 45.5 nM [1 test] and 1.19 µM [mean of 3 tests]; with BT-549 breast, 48.8 nM and 560 nM.
